This is one part of the list. The energies were worked out here from pooled read counts, against the library average; single values are noisy.
Biological target: T1, Pho4 (S. cerevisiae) (UniProt P07270)
T1 sequence: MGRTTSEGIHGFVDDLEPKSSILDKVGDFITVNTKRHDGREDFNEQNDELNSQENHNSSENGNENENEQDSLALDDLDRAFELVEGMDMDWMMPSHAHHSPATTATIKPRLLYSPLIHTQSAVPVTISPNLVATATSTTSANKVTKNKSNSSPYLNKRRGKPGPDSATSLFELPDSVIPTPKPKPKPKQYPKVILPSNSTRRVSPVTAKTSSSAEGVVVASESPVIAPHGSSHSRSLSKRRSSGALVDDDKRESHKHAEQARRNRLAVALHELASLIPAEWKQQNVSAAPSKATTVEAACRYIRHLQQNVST
Assay: relative binding free energy (BET-seq); higher = weaker binding
Conditions: reference: library average

Sequence | relative binding free energy [kcal/mol]
TGGGACACGTGTTTGG | 0
TTGAACACGTGAAGTA | 0.31
GGATTCACGTGTGATA | 0.24
TTGTGCACGTGTCTTT | 0.08
GAGGGCACGTGAATTA | 0.29
GTGGGCACGTGGGGAC | -0.21
TGGTGCACGTGGTTGG | -0.04
GATAGCACGTGGGATA | 0.02
TCTTTCACGTGGGTGG | 0.19
GCTATCACGTGCTGGG | 0.28
AGGGACACGTGGTGTC | -0.14
CAGTGCACGTGGATGT | 0.09
GGTGACACGTGGTAAT | 0.06
TATTTCACGTGAGGAG | 0.4
TGTTTCACGTGGCTAT | 0.27
TGGCGCACGTGTATGT | -0.03
CTGGCCACGTGTGGAG | -0.05
GTTGGCACGTGGCGAG | -0.18
TAATTCACGTGAGATG | 0.53
TAGTGCACGTGCGGAT | -0.03
GGGTGCACGTGGTCAG | -0.17
AGTATCACGTGGCATT | -0.01
GGAGGCACGTGTGCTT | -0.08
CAGGGCACGTGTCTGG | -0.04
GGTGACACGTGTCAGG | 0.04

Sequence | relative binding free energy [kcal/mol]
GCTAGCACGTGTTGGT | -0.09
CTGGGCACGTGGTAGT | -0.16
TAGTGCACGTGGAGAT | -0.02
CTTCGCACGTGTGTGG | -0.01
GTTTTCACGTGAGAGA | 0.46
CGTTGCACGTGTGCAG | -0.04
ATATACACGTGGAGTT | -0.17
GAGCGCACGTGTTGAG | 0.01
GGTGGCACGTGAATTA | 0.2
ACTTTCACGTGTGTTA | 0.16
TAATCCACGTGGTTTT | 0.04
TGCGTCACGTGTTTGC | 0.09
AAAATCACGTGGAAGG | 0.24
TCGCGCACGTGAGGTT | 0.06
AATAGCACGTGAGGGT | 0.09
GTGGGCACGTGCTAAG | -0.12
TCAGGCACGTGTATTG | -0.1
TTAGTCACGTGCATCT | 0.19
TTGTTCACGTGTTAGC | 0.33
CTGTGCACGTGCTTGT | -0.14
TGGATCACGTGAATCT | 0.53
GTATACACGTGAGTGA | 0.27
TTGAGCACGTGTATGA | 0.03
TAGCGCACGTGAAAAG | 0.37
CGTTCCACGTGATGTG | 0.14

Sequence | relative binding free energy [kcal/mol]
GTAGGCACGTGGTATT | -0.05
GTTATCACGTGAAGAT | 0.51
TCGGACACGTGGTGTA | -0.08
CTAGGCACGTGTGGCG | -0.13
GAGGACACGTGGCTGG | 0.05
TCTTTCACGTGTGATA | 0.2
GGGTCCACGTGATGAT | 0.21
AGGGTCACGTGAGGCA | 0.23
TTTTACACGTGTCGTA | 0.02
TTAGTCACGTGTTGAG | 0.1
GTATACACGTGTGATA | 0.18
ACGTTCACGTGTTGCT | 0.24
ATCAGCACGTGGGGGT | -0.3
AGTGACACGTGAAGGT | 0.04
TGTGACACGTGGACGG | -0.02
GTGTGCACGTGTGAAG | 0.13
AGAGGCACGTGATGGC | 0.08
TATGTCACGTGGGTAT | 0.01
GTGGGCACGTGCCAGG | -0.1
GAGTACACGTGTAGTA | 0.14
AAGGTCACGTGAAATT | 0.33
GCCTACACGTGGTGGT | 0.09
GCCGTCACGTGTGGGT | 0.08
ATGTGCACGTGCGTTA | -0.11
CAAGTCACGTGTCGGT | 0.11

Sequence | relative binding free energy [kcal/mol]
TTTTGCACGTGTGATC | 0.1
GGGGCCACGTGCGAGT | -0.16
AATGTCACGTGTCTAG | 0.12
ATATACACGTGAGGTG | 0.15
GGAAGCACGTGAGGGT | 0.12
TCCTTCACGTGGTGGT | 0.17
CTTGACACGTGATGGC | 0.31
TAGGTCACGTGTATAT | 0.16
TTGTACACGTGAATGG | 0.29
GGTATCACGTGTTCGT | 0.23
GTGAACACGTGATAGG | 0.14
TAATGCACGTGGTGGT | -0.12
TAGAGCACGTGGAGGT | -0.12
TCACGCACGTGTGGGT | -0.23
TGTATCACGTGGGATT | 0.09
TGGTGCACGTGGTCAT | -0.1
TTTTTCACGTGGGGGA | 0.28
TGGTTCACGTGACCGG | 0.38
GGAAGCACGTGGAGGT | -0.11
CATGGCACGTGCTTGA | 0.13
CAGGGCACGTGTAAGG | -0.14
ATTCTCACGTGGTGTC | 0.32
GATATCACGTGGAGAG | 0.27
AGGCTCACGTGGATAT | 0.37
GGATACACGTGTTGGA | -0.06

Sequence | relative binding free energy [kcal/mol]
GGGCTCACGTGAAGTA | 0.37
CTTAGCACGTGGGAGG | -0.1
GTAAGCACGTGAGTTT | 0.32
TTAGGCACGTGCAAGG | -0.15
ATCGTCACGTGGGGCA | -0.01
ATATACACGTGTGTGA | 0.02
TAGGACACGTGGTATA | -0.04
ATGTTCACGTGACGTT | 0.29
ACAAGCACGTGTGGGG | -0.12
GTTTTCACGTGAGTTC | 0.39
TGATTCACGTGGGGTC | 0.15
ATAGGCACGTGGGTGC | -0.23
TCTTTCACGTGTTGGC | 0.37
TTCTACACGTGGTGTT | 0.02
TTATGCACGTGCTGTT | -0.19
TTGAGCACGTGAGCCG | 0.21
AGTAACACGTGGTTAG | -0.05
AATAGCACGTGGGATG | -0.14
TCGTACACGTGTGTCG | -0.05
TTGGACACGTGGACTG | 0.13
GAAAGCACGTGTGTGA | -0.05
CATGGCACGTGATATT | 0.06
AGTTACACGTGGACGG | 0.14
CAGATCACGTGGGGTT | 0.02
CAAGGCACGTGGCGGT | -0.25

Sequence | relative binding free energy [kcal/mol]
TTTTTCACGTGTCAAT | 0.34
AGTACCACGTGAGGGG | -0.08
CCTATCACGTGTGGGT | 0.22
TGTGCCACGTGTATGG | -0.09
TTTATCACGTGGTGCT | 0.05
TTAGGCACGTGAAATG | 0.14
TAGCTCACGTGGTGTT | 0.18
TTATACACGTGTCGTT | 0.09
TAAGGCACGTGTGATT | 0.07
AACTTCACGTGTTAGT | 0.35
CGCGGCACGTGTGTGG | -0.2
TGGCACACGTGGGTAA | -0.01
AAGTTCACGTGGCTTG | 0.1
CTCGGCACGTGGGTAG | -0.27
TAGGGCACGTGGGAGT | -0.16
TTGTGCACGTGGCGCT | -0.15
GGTGGCACGTGTCCTG | -0.1
TGTGGCACGTGGAAGC | 0.06
TTGCGCACGTGGGTGA | -0.24
TTTTTCACGTGACTTG | 0.41
AGTGGCACGTGGTGGT | -0.18

Source: the BET-seq Pho4 binding data (Le et al. 2018)
